One molecule from patent US20230081195A1 (INSTITUTE OF GENETICS AND DEVELOPMENT BIOLOGY CHINESE …, published 2023) can be followed below.

The target of the experiment is T1, OML4-MBP (rice, UniProt Q64M78 1-1001).
T1 construct: Expressed in E. coli; Order of the pieces follows the printed name
T1 sequence: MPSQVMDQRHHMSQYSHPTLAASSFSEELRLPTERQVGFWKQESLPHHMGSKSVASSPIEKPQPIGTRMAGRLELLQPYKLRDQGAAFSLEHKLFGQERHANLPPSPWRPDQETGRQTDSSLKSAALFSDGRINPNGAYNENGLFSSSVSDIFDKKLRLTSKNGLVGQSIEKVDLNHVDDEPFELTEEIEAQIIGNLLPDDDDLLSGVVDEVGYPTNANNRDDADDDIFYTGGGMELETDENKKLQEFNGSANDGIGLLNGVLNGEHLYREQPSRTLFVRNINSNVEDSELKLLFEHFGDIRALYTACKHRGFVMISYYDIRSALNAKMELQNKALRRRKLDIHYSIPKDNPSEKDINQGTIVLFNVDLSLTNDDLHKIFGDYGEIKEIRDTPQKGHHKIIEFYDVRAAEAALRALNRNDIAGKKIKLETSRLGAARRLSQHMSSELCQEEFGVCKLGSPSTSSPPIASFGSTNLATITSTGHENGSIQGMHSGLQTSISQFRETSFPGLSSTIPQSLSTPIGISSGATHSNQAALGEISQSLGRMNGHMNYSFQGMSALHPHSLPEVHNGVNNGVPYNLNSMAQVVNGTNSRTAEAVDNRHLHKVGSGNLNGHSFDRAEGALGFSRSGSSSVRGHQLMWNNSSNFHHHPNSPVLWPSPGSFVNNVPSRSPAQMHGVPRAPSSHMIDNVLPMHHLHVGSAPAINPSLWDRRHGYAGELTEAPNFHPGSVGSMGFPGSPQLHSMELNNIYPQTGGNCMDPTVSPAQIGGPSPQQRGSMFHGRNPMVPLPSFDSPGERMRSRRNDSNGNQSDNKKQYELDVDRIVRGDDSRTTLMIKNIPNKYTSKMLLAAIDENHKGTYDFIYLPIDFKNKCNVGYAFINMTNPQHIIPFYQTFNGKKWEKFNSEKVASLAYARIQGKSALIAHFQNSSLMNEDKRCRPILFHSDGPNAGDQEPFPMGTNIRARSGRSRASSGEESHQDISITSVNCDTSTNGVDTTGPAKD
Put plainly: in vitro pull-down on MBP beads, immunoblot with anti-GST. The procedure:
To investigate whether OML4 could directly interact with GSK2, we performed an in vitro pull-down assay (FIG. 5D). We expressed maltose binding protein (MBP)-fused OML4 (OML4-MBP) and GST tag-fused GSK2 (GSK2-GST) proteins in E. coli cells. […] The co-immunoprecipitation (Co-IP) analyses were used to examine the association of GSK2 and OML4 in N. benthamiana. We co-expressed GSK2-GFP and OML4-MYC in N. benthamiana leaves (FIG. 5E). Total proteins were isolated and incubated with MYC beads to immunoprecipitate OML4-MYC. The anti-MYC and anti-GFP antibodies were used to detect immunoprecipitated proteins, respectively.
Recombinant proteins (OML4-MBP and MBP) and the prey proteins (GSK2-GST and GST) were incubated in TGH buffer (50 mM HEPES, PH 7.5, 10% glycerol, 150 mM NaCl, Triton X-100, 1.5 mM MgCl₂, 1 mM EGTA, and protease inhibitor cocktail tablet) for 0.5 hr at 4° C. with 20 μl MBP-beads per tube. Centrifuge 500 rpm for 2 mins and discard supernatant to stop the reaction. Wash beads with ice-cold TGH buffer for 5 times and then add 50 μl SDS-loading buffer. Denatured the samples at 98° C. for 5 mins and finally subjected to the SDS-PAGE analysis. We used anti-MBP (Beyotime) and Anti-GST (Beyotime) to detect the input and the pull-down samples, respectively.
(Immunoblotting shows a protein as a band on a membrane.)

B1: GST (other)
chain: not shown
notes: Control prey protein of the pull-down assay; also called negative control (GST)
Take B1: the binding result is on record as “no binding”.
